Measurements published in the supplement of paper PMC12217912.
Some of the results follow. The full chains were built here from the parent and the listed change. Values near 0.05 are background.

B1: TEV protease; numbered along this chain (parent)
chain: MGESLFKGPRDYNPISSSICHLTNESDGHTTSLYGIGFGPFIITNKHLFRRNNGTLVVQSLHGVFKVKDTTTLQQHLVDGRDMIIIRMPKDFPPFPQKLKFREPQREERICLVTTNFQTKSMSSMVSDTSCTFPSGDGIFWKHWIQTKDGQCGSPLVSTRDGFIVGIHSASNFTNTNNYFTSVPKNFMELLTNQEAQQWVSGWRLNADSVLWGGHKVFMVKPEEPFQPVKEATQL

Variants of: B1
Test: raw area under fraction-flipped curve 0-4 h after induction (AUC4h, not background-subtracted), DNA-recorder readout of cleavage of the substrate (dimensionless); higher = more cleavage of the substrate by the protease variant
Details: temperature: 34 °C; time window: 0-4 h after rhamnose induction
Procedure: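 In vivo DNA recorder in E. coli TOP10(DE3) ΔrhaA at 34 °C. Each TEVp single-site mutant (parent TEVp 0) is paired with a single-site variant of the 7-mer TEVs (canonical ENLYFQ|S). The substrate sits between flexible linkers in a Bxb1-sfGFP-TEVs-SsrA fusion, so cleavage stabilises Bxb1 and speeds flipping of a recombination array, read by NGS. The value is the raw area under the fraction-flipped curve over 0-4 h after rhamnose induction (AUC4h), with ≥20 reads per time point. It is not background-subtracted; inactive controls average about 0.047.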
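Note: Bxb1 expression induced with 0.2% (w/v) L-rhamnose at OD600 near 0.5, cultures sampled hourly, flipped fraction per protease–substrate barcode pair counted by paired-end Illumina sequencing.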

Row | Variant | area with substrate ENLAFQS | area with substrate ENLCFQS | area with substrate ENLDFQS | area with substrate ENLEFQS | area with substrate ENLFFQS | area with substrate ENLHFQS | area with substrate ENLIFQS | area with substrate ENLKFQS | area with substrate ENLLFQS | area with substrate ENLNFQS | area with substrate ENLPFQS | area with substrate ENLQFQS | area with substrate ENLRFQS | area with substrate ENLSFQS | area with substrate ENLTFQS | area with substrate ENLWFQS | area with substrate ENLGFQS | area with substrate ENLMFQS | area with substrate ENLVFQS
1 | P222W | 0.0577 | 0.0672 | 0.061 | 0.0417 | 0.103 | 0.0651 | 0.134 | 0.0673 | 0.0521 | 0.0609 | 0.0404 | 0.0571 | 0.0654 | 0.0649 | 0.0466 | 0.0616 | – | – | –
2 | S201D | 0.0699 | 0.0623 | 0.0622 | 0.0634 | 0.065 | 0.0749 | 0.0737 | 0.0713 | – | 0.0534 | 0.0659 | 0.0749 | – | 0.0594 | – | 0.0703 | – | – | –
3 | E231W | 0.0556 | – | 0.0581 | 0.0713 | 0.0809 | 0.0621 | 0.0748 | 0.0745 | 0.0688 | 0.0559 | 0.0631 | 0.0591 | 0.0677 | 0.0557 | – | 0.0822 | 0.0724 | 0.0604 | –
4 | P184Q | 0.0511 | – | 0.0584 | 0.0691 | 0.0557 | 0.0622 | – | 0.0551 | 0.0588 | 0.0588 | 0.0596 | 0.0667 | – | 0.057 | 0.0363 | 0.0542 | 0.0713 | 0.0497 | –
5 | P184A | 0.0619 | 0.0673 | 0.0671 | 0.0519 | 0.0753 | 0.0625 | 0.0696 | 0.0702 | 0.0571 | 0.0649 | 0.0639 | – | – | – | – | 0.0612 | – | – | 0.0643
6 | P184E | 0.0543 | – | 0.0628 | 0.0567 | 0.06 | – | 0.0671 | 0.0905 | – | 0.0547 | 0.0513 | – | – | 0.0424 | – | 0.0687 | – | – | –
7 | W199G | 0.0464 | 0.0741 | – | 0.0592 | 0.0806 | 0.0574 | – | 0.0601 | 0.047 | 0.0588 | 0.0548 | – | – | 0.0544 | – | 0.0689 | – | 0.0506 | –
8 | V200Q | 0.041 | – | 0.0658 | – | – | – | – | 0.0779 | – | – | – | – | – | – | – | – | 0.0613 | – | –
9 | A207S | 0.0674 | 0.0849 | 0.0657 | – | 0.0837 | 0.0569 | 0.0678 | 0.0714 | 0.0848 | 0.0728 | – | 0.0705 | 0.0794 | 0.0751 | – | 0.0782 | 0.0718 | – | 0.0773
10 | A207I | 0.0674 | 0.039 | – | 0.059 | 0.0632 | – | – | 0.0623 | 0.0587 | – | 0.0715 | – | 0.0444 | 0.0493 | – | 0.0503 | – | – | 0.0871
11 | V217W | 0.0645 | – | – | 0.0631 | 0.0798 | 0.0371 | – | – | – | 0.0712 | 0.0473 | 0.0485 | – | – | – | – | – | – | –
12 | F226D | 0.0728 | – | – | 0.0629 | 0.0954 | – | – | 0.0826 | 0.0768 | 0.0612 | 0.0555 | 0.0814 | – | – | – | – | – | – | –
13 | G8W | – | 0.0429 | 0.0474 | – | 0.0805 | 0.0663 | – | 0.064 | 0.0705 | – | – | – | 0.0818 | 0.0527 | – | – | – | – | –
14 | G202F | 0.0585 | 0.0686 | 0.0746 | 0.0694 | 0.0577 | – | – | 0.0594 | 0.052 | 0.0442 | 0.036 | 0.0744 | 0.0727 | 0.0597 | 0.074 | 0.0664 | – | – | 0.0606
15 | L5M | – | 0.104 | 0.0312 | 0.0425 | 0.0965 | – | 0.0948 | – | – | 0.0685 | 0.0706 | 0.0763 | 0.104 | – | – | – | – | 0.0864 | –
16 | Q198F | 0.0708 | – | 0.0612 | 0.0625 | 0.107 | 0.0747 | 0.0828 | 0.0764 | 0.0636 | 0.0648 | 0.0633 | 0.0706 | 0.0838 | 0.054 | – | – | 0.0675 | 0.0718 | 0.0717
17 | E223Q | 0.0658 | 0.0839 | 0.0592 | 0.0535 | 0.0706 | – | – | 0.0769 | 0.0729 | – | – | 0.0778 | 0.0564 | – | – | – | – | 0.0822 | –
18 | S209P | 0.0631 | – | 0.0591 | – | 0.0679 | 0.0618 | 0.0596 | – | 0.0829 | 0.0662 | 0.0596 | 0.0705 | 0.0732 | – | – | – | 0.0651 | 0.051 | –
19 | V183K | 0.0563 | 0.0537 | 0.0638 | – | 0.0564 | 0.0538 | 0.0545 | 0.0364 | 0.0558 | 0.0586 | 0.0539 | 0.0452 | 0.0525 | – | 0.0515 | 0.0651 | – | – | 0.05
20 | H215Q | 0.0703 | 0.0496 | 0.0613 | 0.0659 | 0.0687 | 0.0568 | – | 0.0338 | 0.0524 | 0.069 | 0.063 | 0.0591 | – | 0.0486 | – | 0.0605 | 0.0645 | 0.0371 | 0.0694
21 | H215V | 0.0573 | 0.0612 | – | – | 0.0542 | 0.0655 | – | 0.0592 | – | – | 0.0612 | – | 0.0629 | 0.0652 | – | 0.0524 | – | 0.0684 | –
22 | E3N | – | 0.0928 | 0.0451 | – | 0.0864 | – | – | 0.0448 | – | – | 0.0391 | 0.0798 | 0.0846 | 0.0628 | – | – | – | – | –
23 | S4L | – | 0.0538 | 0.0687 | 0.0572 | 0.0693 | 0.0574 | 0.0747 | 0.0706 | 0.0618 | 0.0683 | 0.0583 | 0.0658 | 0.0738 | 0.0674 | – | 0.0688 | 0.071 | – | 0.0682
24 | R204I | 0.063 | 0.0752 | 0.0599 | 0.0624 | 0.0871 | 0.0727 | 0.0718 | 0.0672 | 0.0647 | 0.0597 | 0.0613 | 0.0615 | 0.0711 | 0.0585 | – | 0.0736 | – | 0.0577 | 0.0757
25 | D11E | – | 0.0605 | 0.0598 | 0.0664 | 0.102 | 0.0518 | – | 0.0736 | 0.0836 | 0.0653 | 0.0634 | 0.0589 | 0.0419 | 0.0622 | – | – | 0.0718 | 0.0696 | 0.0695
26 | D208C | 0.0579 | 0.0517 | 0.0592 | 0.0741 | 0.0684 | 0.0608 | 0.0763 | 0.0704 | – | – | 0.059 | 0.075 | – | 0.0595 | – | – | – | – | –
27 | D208I | 0.064 | 0.0571 | 0.064 | 0.0624 | 0.0843 | 0.0702 | 0.0656 | 0.0698 | – | 0.0693 | 0.0665 | – | – | 0.0566 | 0.0602 | 0.0561 | 0.0648 | 0.0328 | 0.0626
28 | D208F | 0.0651 | 0.0399 | 0.0629 | – | 0.07 | 0.0682 | – | 0.0617 | 0.0498 | 0.0523 | 0.0652 | 0.0614 | 0.067 | 0.0641 | – | 0.0779 | – | – | 0.0678
